From article PMC5965893
No constants are given. Whether binding was seen depends on the method and setting. In cells and extracts the contact can be indirect.

By UniProt entry, the sequences of proteins in these tests, tags left out. Residues count along the entry.
UniProt Q00987: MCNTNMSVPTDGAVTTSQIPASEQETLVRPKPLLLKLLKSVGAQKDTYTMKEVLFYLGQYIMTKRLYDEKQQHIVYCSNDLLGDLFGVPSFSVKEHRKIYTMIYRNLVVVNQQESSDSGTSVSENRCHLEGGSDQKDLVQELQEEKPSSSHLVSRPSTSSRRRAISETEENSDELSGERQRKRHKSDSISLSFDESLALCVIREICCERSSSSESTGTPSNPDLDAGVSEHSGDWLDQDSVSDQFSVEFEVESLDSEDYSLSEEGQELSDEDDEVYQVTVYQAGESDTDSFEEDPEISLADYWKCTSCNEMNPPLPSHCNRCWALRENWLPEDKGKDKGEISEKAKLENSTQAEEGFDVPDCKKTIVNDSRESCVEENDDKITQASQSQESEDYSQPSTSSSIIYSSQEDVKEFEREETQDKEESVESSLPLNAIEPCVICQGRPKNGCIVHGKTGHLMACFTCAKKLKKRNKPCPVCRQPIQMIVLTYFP
UniProt Q16288, residues 496-641: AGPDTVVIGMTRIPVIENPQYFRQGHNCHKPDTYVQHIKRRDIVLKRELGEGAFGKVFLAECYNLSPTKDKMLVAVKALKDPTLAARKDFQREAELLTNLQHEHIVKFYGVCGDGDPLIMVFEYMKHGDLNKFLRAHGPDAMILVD

Target: endogenous MDM2 (human (endogenous in SHEP)) (UniProt Q00987)
Test: proximity ligation; DuoLink PLA on SHEP cells fixed in 4% PFA and permeabilised; pairs of primary antibodies (anti-GFP or anti-Flag for the TrkC constructs; pan-importin, anti-Hey1 or anti-MDM2 for endogenous proteins); red spots counted per cell

binding: no binding
Substance: TrkC-KF-Flag (from UniProt Q16288 496-641) (domain or fragment)
